PubChem BioAssay AID485344 (National Center for Advancing Translational Sciences (NCATS), 2010)
Several values for one entry are separate records, joined by “and”; a condition that tells them apart may be missing. Identical values can stand only once. Out of some 340,000 compounds screened, about 6,900 (2%) were called active. Rule as the data show it: active = inhibition above about 30%; inactive = below that, where a call was filed. The entries are a selection whose mix differs from that of the whole data set. Where no call is shown, the source filed none.

molecular target: D(2) dopamine receptor (Homo sapiens) (UniProt P14416); assay: HTS Assay for Allosteric Antagonists of the Human D2 Dopamine Receptor: Primary Screen for Antagonists; conditions: HEK293 TREx D2 cells, calcium flux, dopamine EC80; at 10 µM; stronger effect = higher value; also: 0% is about no effect
UniProt P14416, sequence (P14416 whole entry, looked up): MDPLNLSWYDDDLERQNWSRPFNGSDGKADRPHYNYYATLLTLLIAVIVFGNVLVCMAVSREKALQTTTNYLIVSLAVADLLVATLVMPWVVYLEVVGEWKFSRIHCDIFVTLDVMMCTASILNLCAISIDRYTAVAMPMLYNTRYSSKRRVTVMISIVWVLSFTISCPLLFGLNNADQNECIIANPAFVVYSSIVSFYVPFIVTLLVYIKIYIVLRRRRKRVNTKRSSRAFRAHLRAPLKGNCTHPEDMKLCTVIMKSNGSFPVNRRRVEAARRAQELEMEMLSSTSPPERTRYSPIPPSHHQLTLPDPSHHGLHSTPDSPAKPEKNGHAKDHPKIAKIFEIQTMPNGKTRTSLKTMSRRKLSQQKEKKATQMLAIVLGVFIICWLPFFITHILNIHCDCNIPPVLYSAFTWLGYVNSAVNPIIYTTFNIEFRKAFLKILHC
How it was run: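 Calcium flux kinetic readout in an inducible HEK293 TREx D2 line plated overnight at 30 C. After 180 s compound exposure, an EC80 dopamine challenge follows with another 180 s kinetic read to detect antagonism.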

| Structure (SMILES) | inhibition |
| --- | --- |
| CCC12CN3CC(CC)(CN(C1)C3c1cc(Br)ccc1OC)C2=O (centres undefined) | -7.14% |
| CCn1cc(C(=O)NCc2ccc(C)cc2)c(=O)c2cc(S(=O)(=O)N3CCc4ccccc4C3)ccc21 | 16% |
| Cc1nc(-c2ccc(S(=O)(=O)N3CCN(c4ccc(F)cc4)CC3)cc2)co1 | -1.38% |
| CCOCCCNC(=O)C(=O)Nc1c2c(nn1-c1ccc(OC)cc1)CSC2 | -19.5% |
| Cc1ccc2c(=O)c(C(=O)c3ccc(F)cc3)cn(CC(=O)NCCc3ccccc3)c2n1 | 0.342% |
| COc1ccc(S(=O)(=O)Nc2cc3c(cc2NCc2ccccc2)n(C)c(=O)n3C)cc1 | 10.7% |
| CCOc1ccc(C(=O)Nc2ccc3oc(-c4cccnc4)nc3c2)cc1 | -7.37% |
| Cc1cc(C)cc(NC(=O)C2CCN(S(=O)(=O)c3ccc4[nH]c(=O)ccc4c3)CC2)c1 | active: 31.2% |
| COc1ccc(CN(Cc2ccco2)c2cnc(S(C)(=O)=O)nc2C(=O)Nc2ccc(C)cc2C)cc1 | -23.3% |
| Cc1cccc(OCCCn2c(CCNC(=O)C(C)(C)C)nc3ccccc32)c1 | -5.11% |
| CCn1cc2nc(SCc3cc(C)ccc3C)n(Cc3ccc(OC)cc3)c(=O)c2n1 | -8.74% |
| Cc1cccc(OCCSc2nc3ccc(NC(=O)COc4ccccc4)cc3s2)c1 | 18.4% |
| COc1cccc(S(=O)(=O)Nc2cccc(C(=O)N3CCOCC3)c2)c1 | active: 36.1% |
| Cc1ccc(NC(=O)Nc2ccc3snnc3c2)cc1C | -2.08% |
| O=C(NCc1ccco1)c1ccc2c(c1)N(Cc1ccc(Cl)cc1)C(=O)c1ccccc1S2=O (centres undefined) | 3.28% |
| CCOC(=O)c1ccc(NC(=O)CC2C(=O)OCCN2CC)cc1 (centres undefined) | active: 47.7% and -6.3% |
| CCN(C(=O)C1CCCN(S(=O)(=O)c2c(C)noc2/C=C/N(C)C)C1)c1cccc(C)c1 (centres undefined) | -2.89% |
| CCc1ccc(CN(Cc2ccco2)c2cnc(S(C)(=O)=O)nc2C(=O)Nc2ccccc2Cl)cc1 | 25.1% |
| COC(=O)c1scc(-c2ccc(C)cc2)c1S(=O)(=O)N1CCN(c2cccc(OC)c2)CC1 | 13.7% |
| Cc1ccc(Sc2c(C)nn(C(C)(C)C)c2OC(=O)C(C)(C)C)cc1 | 5.24% |
| CCc1nnc(SC(CC)C(=O)Nc2cccc(OC)c2)c2cc3oc(C)cc3n12 (centres undefined) | 17.9% |
| Cc1ccc(CNC(=O)CC(C)S(=O)(=O)c2cc3c(cc2C)NC(=O)CO3)cc1 (centres undefined) | 0.351% |
| CSC1=NC2(CCN(C(=O)NC3CCCCC3)CC2)N=C1c1ccc(C)c(C)c1 | -3.07% |
| Cc1ccc(NC(=O)CCc2nnc3n(C)c(=O)c4sccc4n23)cc1C | 9.74% |

| Structure (SMILES) | inhibition |
| --- | --- |
| CC(C)Oc1ccc(C(=O)N(Cc2ccco2)c2ccccn2)cc1 | -10.5% |
| Cc1ccc(C)c(NC(=O)CN2C(=O)C(C)(C)c3ccccc32)c1 | -1.6% |
| COc1ccc(Br)cc1CNC(=O)c1cc2n(n1)CCCN(Cc1ccc(C)cc1)C2=O | -8.37% |
| O=C(Nc1sc2c(c1C(=O)NCc1ccco1)CCCC2)c1cc(=O)c2ccccc2o1 | -8.31% |
| COc1ccccc1C1CCN(Cc2ccc3ccccc3c2)CC1 | active: 85.1% |
| Cc1nc(Oc2ccc(F)cc2Cl)c2oc3ccccc3c2n1 | 18.2% |
| CCC(=O)N1CCc2cc(Br)cc(S(=O)(=O)CCC(=O)NCc3ccc(Cl)cc3)c21 | 3.31% |
| CCOc1ccccc1NC(=O)CN(C)S(=O)(=O)c1ccc2nc(C)sc2c1 | 7.53% |
| COc1cc(C(=O)NCC(c2cccs2)S(=O)(=O)c2ccc(F)cc2)cc(OC)c1OC (centres undefined) | -24.3% |
| CCOC(=O)c1c(C)[nH]c(CCC(=O)Nc2ccc(C)c(F)c2)c1C | -7.91% |
| COc1cc2cc(CNc3ccc(C)cc3)c(=O)n(CC(=O)Nc3ccc(F)cc3F)c2cc1OC | -2.79% |
| Cc1ccccc1-c1noc(-c2ccc(O)cc2)n1 | active: 45.9% |
| Cc1cccc(OCC(=O)Nc2ccc(Cl)c(-c3nc4ncccc4o3)c2)c1C | 11% |
| Cc1cccc(NC(=O)c2nnn(CC(=O)Nc3ccc(C(C)C)cc3)c2N)c1C | 8.97% |
| COc1ccc(-c2cc(C(=O)OC(C)C(=O)c3ccccc3)c3cccc(Cl)c3n2)cc1 (centres undefined) | 2.24% |
| c1ccc(Nc2c(-c3c[nH]c4ccccc34)nc3ccccn23)cc1 | 17.9% |
| Cc1ccc(C2c3[nH]c4ccccc4c3CCN2C(=O)c2cccc(C)c2)cc1 (centres undefined) | 14.2% |
| CC(C)Nc1ccc(-c2nc(-c3ccco3)no2)cc1[N+](=O)[O-] | 8.69% |
| CCC(C)NC(=O)c1ccccc1NC(=O)CN1C(=O)c2cccc3cccc1c23 (centres undefined) | 4.22% |
| CCOCCCNC(=O)C(c1ccc(C)cc1)N(Cc1ccc2c(c1)OCO2)C(=O)c1ccc(NC(C)=O)cc1 (centres undefined) | -2.89% |
| Cc1ccc2nc(N3CCC(C(=O)N4CCN(c5cccc(Cl)c5)CC4)CC3)[nH]c2c1 | 11.7% |
| COc1ccc(-c2noc(CC(=O)Nc3ccc(F)cc3F)n2)cc1 | -6.01% |
| Cc1ccc(-c2nnc(Nc3cccc(O)c3)c3ccccc23)cc1S(=O)(=O)N1CCOCC1 | 12.4% |
| CON(C)S(=O)(=O)c1cccc(C(=O)Nc2ccc(S(=O)(=O)NC3=NCCCCC3)cc2)c1 | active: 32.7% |

| Structure (SMILES) | inhibition |
| --- | --- |
| CCc1ccc(NC(=O)CCn2nc(-c3ccccc3OC)c3c(C)cc(C)nc32)cc1 | 27.1% |
| COc1ccccc1OC(C)C(=O)Nc1ccc(-c2nc3ccccc3s2)cc1 (centres undefined) | -9.34% |
| CCC(C(=O)NCc1ccccc1)n1nc(C)c2sc3ccccc3c2c1=O (centres undefined) | 9.15% |
| COc1ccc(NC(=O)CCn2c(=O)c3cccn3c3cccnc32)c(OC)c1 | 1.5% |
| CN(Cc1ccccc1)C(=O)Nc1ccc2c(c1)N(C)C(=O)c1ccccc1S2 | 18.6% |
| Cc1ccc(-n2ncc(C(=O)NCc3cccs3)c2C2CCN(C(=O)OC(C)(C)C)CC2)c(C)c1 | 16.3% |
| COc1ccc(NC(=O)C2=C(C)Nc3nc(SCc4ccccc4C)nn3C2c2cc(OC)c(O)c(OC)c2)cc1 (centres undefined) | 10.4% |
| Cc1noc(C)c1S(=O)(=O)NCCN1CCN(c2ccccc2)CC1 | active: 32.6% |
| Brc1ccccc1-c1nnc(COc2cccc3cccnc23)o1 | active: 38.3% |
| Cc1ccc(CSc2nnc(CCNC(=O)OC(C)(C)C)o2)cc1 | 7.99% |
| COc1ccc(OC)c(NC(=O)CSc2nnc3ccc4ccccc4n23)c1 | 1.84% |
| O=C(NCc1ccccc1Cl)c1ccc(CSCc2ccccc2Cl)o1 | 18.7% |
| Fc1ccccc1N1CCN(C2CCCN(Cc3cccc(C(F)(F)F)c3)C2)CC1 (centres undefined) | active: 55.4% |
| CCN(CC)CCCNC(=O)c1ccc2c(=O)n(CCc3ccccc3)c(=O)[nH]c2c1 | 0.0041% |
| O=C(c1ccc(F)cc1)N(NC(=O)C(O)(c1ccccc1)c1ccccc1)c1ccccc1 | active: 39.7% |
| CCc1ccc(-n2cnc3cc(C(=O)NCc4ccc(C)cc4)ccc32)cc1 | 16.1% |
| CCOc1ccc(C(=O)Nc2ccc3nc(SCCOc4ccccc4)sc3c2)cc1 | -6.75% |
| CCOC(=O)c1c(C)[nH]c(CCC(=O)NCc2ccc(CC)cc2)c1C | -11.9% |
| CC(=O)c1cccc(NC(=O)Cn2nc(C)n3cccc3c2=O)c1 | -8.92% |
| O=C(CSc1nnc(-c2ccccc2)o1)c1cccc([N+](=O)[O-])c1 | -22.1% |
| CCN(CC)CCCNC(=O)c1ccc(-c2nc(CN3CCc4ccccc43)c(C)o2)cc1 | -8.24% |
| COC(=O)c1cc(S(=O)(=O)N2CCN(c3cccc(C)c3)C(C)C2)cn1C (centres undefined) | 5.76% |
| O=C(Cn1ncc2c3ccccc3n(Cc3ccc(Cl)cc3)c2c1=O)NCc1ccccn1 | 6.7% |
| O=C(CSc1nnc(-c2cccs2)o1)Oc1ccccc1 | -0.371% |

| Structure (SMILES) | inhibition |
| --- | --- |
| COc1ccc(N2CCN(C(=O)CCn3nc(C)c(S(=O)(=O)N4CCCC4)c3C)CC2)cc1 | -3.42% |
| O=C(NCc1cccnc1)c1ccc(COc2ccccc2Br)cc1 | active: 52.9% |
| CC(=O)N1CCCc2cc(S(=O)(=O)N3CCC(C(=O)Nc4cccc(Cl)c4C)CC3)ccc21 | -2.3% |
| CCN(CC)C(=O)c1c(-c2ccccc2)c(-c2ccccc2)nn(C)c1=O | 21.6% |
| CCc1ccc(C(=O)c2cn(CC(=O)Nc3cc(C)ccc3C)c3nc(C)ccc3c2=O)cc1 | -1.42% |
| Cc1ccc(N2CCN(C(=O)c3c(C)oc4ncn(CC(C)C)c(=O)c34)CC2)c(C)c1 | -9.42% |
| Cc1ccc(C)c(N2CCN(C(=O)C3CCN(c4nc5ccc(C)cc5[nH]4)CC3)CC2)c1 | -21.1% |
| CCC(C)NC(=O)c1cc(-c2cccc(OC)c2)on1 (centres undefined) | 16.7% |
| Cc1cccc(CCNC(=O)c2ccc3c(c2)N(Cc2ccccc2F)C(=O)c2ccccc2S3)c1 | 7.31% |
| Cc1cc(-c2ccc(C)c(S(=O)(=O)N3CCN(c4cccc(C(F)(F)F)c4)CC3)c2)on1 | -4.25% |
| CN(C)c1ccc(-c2nc(-c3cc4cc(Cl)ccc4oc3=O)cs2)cc1 | -17.5% |
| CCc1cccc(NC(=O)CCC(=O)N2CCSc3ccccc32)c1 | -10.2% |
| Cc1ccc(Oc2c(C(F)(F)F)oc3c(CN4CCC(C)CC4)c(O)ccc3c2=O)cc1 | 9.53% |
| O=C(Nc1ccc(S(=O)(=O)Nc2ccccn2)cc1)c1cccc([N+](=O)[O-])c1 | active: 38.8% |
| COc1cc(NC(=O)Cn2c(=O)n(Cc3ccco3)c(=O)c3sc4ccccc4c32)cc(OC)c1 | -5.09% |
| COc1ccc(S(=O)(=O)NCC2CCC(C(=O)NCCCN3CCCC3=O)CC2)cc1 (centres undefined) | active: 31.9% |
| COCCCNc1oc(/C=C/c2cc(OC)c(OC)c(OC)c2)nc1C#N | 15.6% |
| Cc1nc2scc(C)n2c(=O)c1S(=O)(=O)Nc1ccc(N2CCOCC2)c(Cl)c1 | 3.19% |
| CCC(C(=O)Nc1cc(OC)cc(OC)c1)n1nc(-c2ccc(C)c(C)c2)ccc1=O (centres undefined) | -9.92% |
| CCOc1ccc(C(=O)NCCn2cc(SCC(=O)Nc3ccc4c(c3)OCCO4)c3ccccc32)cc1 | -3.41% |
| CCOc1ccc(-c2nc(CSCC(=O)N3CCN(c4ccc(F)cc4)CC3)c(C)o2)cc1 | 28.1% |
| CC1CCN(CCCOc2ccc(Cl)cc2Br)CC1 | active: 33.5% |
